In PubChem BioAssay AID686978 (National Center for Advancing Translational Sciences (NCATS), 2013):
Values joined by “and” are separate entries in the source; they are usually repeats but may differ in a detail not shown here. Equal entries are not always repeated. About 64,000 (15%) of roughly 420,000 compounds were called active. The shares of active, inactive and inconclusive entries below differ from those in the screen. The call rests on the fitted dose curve; in most records, active means well fitted inhibition curve with a large enough effect; inconclusive means small, poorly fitted or top-dose-only effect; inactive means flat fitted curve, though single readings scatter. Potencies of inconclusive entries are left out as doubtful fits.

Assay: qHTS for Inhibitors of human tyrosyl-DNA phosphodiesterase 1 (TDP1): qHTS in cells in absence of CPT; further: nearly all actives have a fitted effect of over 55% in size
Conditions: DT40 Tdp1-/- hTDP1 cells, no CPT, ATP luminescence, 48 h; activity change, negative = growth inhibition: at 46.2 µM (top of the series) unless noted
Method in brief: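 Chicken DT40 Tdp1-/- cells stably complemented with human TDP1 were seeded at 400 cells/well with DMSO in place of 20 nM camptothecin. After compound pinning, cells grew at least 48 hr at 37 °C; viability read by CellTiter-Glo luminescence.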
On the % scale 0 is the no-effect control and ±100 the full control effect; potency means the concentration at half of the fitted maximal effect; tags describe the fitted curve by direction and shape.

Compound	Potency	activity change, negative = growth inhibition
CCCSC1=C(C#N)C(c2cccnc2)C(C(=O)OCC)=C(c2ccccc2)N1 (stereo not given)	inconclusive [inhibitor, single point]	–
COc1ccc(CCCC(=O)N/N=C/c2cccc(OC)c2O)cc1C	active: 1.64 µM	–
O=C(CCSc1nnc(-c2ccncc2)o1)Nc1ccc(Cl)cc1	–	inactive: -19.2%
CC1CCN(Cc2nnnn2-c2cccc([N+](=O)[O-])c2)CC1	inconclusive [inhibitor, single point]	–
CC(=O)C1=C(C)Nc2ncnn2C1c1ccc(C)cc1 (stereo not given)	–	inactive: 16.2%
CC(C)c1ccc(CN(C(=O)/C=C/c2ccco2)C2CCS(=O)(=O)C2)cc1 (stereo not given)	inconclusive [inhibitor, single point]	–
Cc1cc(C)c2[nH]c(C(=O)N3CCC(n4nccc4NC(=O)C4CC4)CC3)c(C)c2c1	inconclusive [inhibitor, single point]	–
O=C(Nc1ccccc1C(=O)N1CCCC1)c1cccc(S(=O)(=O)N2CCCCCC2)c1	inconclusive [inhibitor, partial curve, poor fit]	–
CCOC(=O)C1CCCN(c2ncnc3c2oc2ccccc23)C1 (stereo not given)	active: 13 µM	–
c1ccc(CN(Cc2cccs2)C(c2cccs2)c2nnnn2C2CCCC2)cc1 (stereo not given)	active: 18.4 µM	–
COc1cccc(NC(=O)CS(=O)(=O)Cc2nc(-c3ccc(C)cc3)oc2C)c1	inconclusive [inhibitor, partial curve, poor fit]	–
COc1cc(C2c3[nH]c4ccccc4c3C[C@@H]3C(=O)N(Cc4ccco4)CC(=O)N23)cc(OC)c1OC (stereo not given in full)	inconclusive [inhibitor, single point]	–
CCCCCCCC[N+](C)(C)CCCCCCCC	active: 1.33 µM and active: 1.5 µM	–
COc1cc2nc(N3CCN(c4cc(C)ccc4C)CC3)nc(N)c2cc1OC	active: 7.31 µM	–
COC(=O)c1c(-c2cccc3ccccc23)csc1NC(=O)Cc1ccc(OC)c(OC)c1	active: 11.6 µM	–
COc1ccc(CNC(=O)CCCN2C(=O)CCn3nc(-c4cn(C)c5ccccc45)cc32)cc1	inconclusive [inhibitor, single point]	–
CS(=O)(=O)N(CC(=O)NCCSCc1ccccc1)c1ccccc1Cl	inconclusive [inhibitor, single point]	–
COc1ccc(N2C(=O)CSC23C(=O)Nc2ccccc23)cc1 (stereo not given)	–	inactive: -22.5%

Compound	Potency	activity change, negative = growth inhibition
CCn1cc(C(=O)NCCCN2CC(C)CC(C)C2)c(=O)c2cc(S(=O)(=O)N(C)C3CCCCC3)ccc21 (stereo not given)	inconclusive [inhibitor, single point]	–
CCc1nc2c(OCc3ccc(C(F)(F)F)cc3)cccn2c1N(C)C(C)=O	inconclusive [inhibitor, single point]	–
CC(C)n1c(CN2CCN(Cc3ccccc3)CC2)nc2ccccc21	inconclusive [inhibitor, single point]	–
CCCNC(=O)C1(C)CCCN(C(=O)c2sccc2C)C1 (stereo not given)	–	inactive: 6.94%
CC(=O)Nc1ccc(S(=O)(=O)NCCC(=O)NCc2ccco2)cc1	–	inactive: -4.36%
O=C(CSc1nnc(-c2ccco2)n1Cc1ccccc1)c1ccccc1	inconclusive [inhibitor, partial curve]	–
CCn1nc(NC(=O)c2cccnc2)c2cc3cccc(C)c3nc21	–	inactive: -23.1%
Cc1cc(=O)oc(C)c1C(=O)Nc1ccc(F)cc1	–	inactive: -7.02%
COc1cc(SC)ccc1C(=O)N1CCN(c2ccc(O)cc2)CC1	active: 9.2 µM	–
Cc1c(Cl)cccc1NC(=O)CSc1nc(=O)[nH]c2c1CCCC2	active: 20.6 µM	–
CC1=C(C(=O)OCC2CCCCC2)C(c2ccccc2F)NC(=O)N1 (stereo not given)	inconclusive [inhibitor, single point]	–
N#CC1=C(N)S[C@@H](C(=O)c2ccc(F)cc2)[C@@H]1c1cccs1	inconclusive [inhibitor, partial curve]	–
NC(=O)C1CC(=O)N(Cc2ccc3c(c2)OCO3)C(=Nc2ccccc2)S1 (stereo not given)	–	inactive: -12.6%
COC(=O)C1(Cc2ccccc2)NC(c2ccc(F)cc2)C2C(=O)N(C)C(=O)C21 (stereo not given)	inconclusive [inhibitor, partial curve]	–
Cc1cccc2c(C(=O)N3CCN(c4ccccn4)CC3)cc(-c3cccc(Br)c3)nc12	–	inactive: -23.5%
O=S1(=O)C=C(SCCN2CCCC2)c2ccccc21	–	inactive: -17.4%
Cc1ccc(-n2c(=O)c3cccnc3n2CC(=O)Nc2ccc(C)cc2Cl)cc1	active: 13 µM	–
